Values marked as one replicate rest on one cluster of the flow cell; about a third of the high ones do not repeat.
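Also: ATP exposure 15 min at 22 °C before imaging.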

The subject of the series is ATP. As to the kind of experiment: switch fluorescence ratio, 500 uM ATP over buffer (Cy3 cluster intensity, sum of 5 cycles each) (fold (ratio)); higher = stronger signal-on switching upon ATP binding; sequences stand for … in TCGTCGGCAGCGTCAGATGTGTATAAGAGACAGTTTTTTTTTTTTTTTTTTTTTTTTT…TC. As to conditions: aptamer strand: ATP DNA aptamer (quencher-CACCTGGGGGAGTATTGCGGAGGAAGG + anchor), 100 nM annealed; ATP concentration: 500 uM; one replicate. Summed up:
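For every switch-domain sequence, the fluorescence ratio is the mean of per-cluster values, each being summed target-cycle Cy3 intensity over summed buffer-cycle Cy3 intensity. Clusters outside 100-1000 RFU were excluded. On a modified Illumina MiSeq flow-cell, the Cy3-labelled switching-strand clusters were annealed to 100 nM quencher-labelled ATP aptamer, imaged in selection buffer and then after 15 min with 500 uM ATP at 22 °C. Five such cycles were run, with NaOH stripping and re-annealing between them.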
Turning to TGTGTACGGT, the switch fluorescence ratio worked out at 0.978.

Turning to GGCGTTTACA, the switch fluorescence ratio worked out at 0.994.

Consider ATGTTGAATT, for which the switch fluorescence ratio came to 0.98.

As to GTTTTGCGAC, the switch fluorescence ratio was 1.

With GGGGCCTTGA, the switch fluorescence ratio worked out at 1.03.

TTATGGGCAT: the switch fluorescence ratio stood at 1.02.

Regarding GTGAGCTCAG, the switch fluorescence ratio came out at 1.02.

Consider TCTTGCGGGA, for which the switch fluorescence ratio amounted to 1.02.

As for ATAAAAGATG, the switch fluorescence ratio came to 1.01.

Take AATTTTGGGC: the switch fluorescence ratio came out at 0.969.

Regarding ATATCACACG, the switch fluorescence ratio turned out to be 1.03.

TTGATTTAG: the switch fluorescence ratio was determined as 1.

As for CTCTAGATCT, the switch fluorescence ratio stood at 1.14.

For the sequence CCCTTAACGG, the switch fluorescence ratio was 1.2.

On to GAGTTAACAT, for which the switch fluorescence ratio worked out at 0.977.

As to TTAGTGGTC, the switch fluorescence ratio came out at 0.973.

In the case of TTAGGCGAA, the switch fluorescence ratio is 1.02.

Take TTACACCCAT: the switch fluorescence ratio stood at 1.16.

With ACACGTTGGA, the switch fluorescence ratio turned out to be 0.979.

Take GCGAAATATT: the switch fluorescence ratio stood at 0.981.

Turning to ATTTTATGTA, the switch fluorescence ratio amounted to 1.03.

As for TTTCATAGGT, the switch fluorescence ratio amounted to 1.05.

Consider AGTATACACT, for which the switch fluorescence ratio worked out at 1.02.

As to GTCGTAATAG, the switch fluorescence ratio came to 1.52.

On to ATTGCTTTCG, for which the switch fluorescence ratio was found to be 1.01.

Consider GATTTGGGGG, for which the switch fluorescence ratio turned out to be 1.

Turning to ATATTATGCG, the switch fluorescence ratio was 0.935.

As for TCTTCATGA, the switch fluorescence ratio was determined as 1.04.

Turning to AGTGCGCGCA, the switch fluorescence ratio was determined as 0.945.

Regarding GCTCCTCGCG, the switch fluorescence ratio is 1.17.

TTTCTTTACC: the switch fluorescence ratio was 1.05.

Take ACGTCTTCTA: the switch fluorescence ratio was determined as 1.05.

On to CAAGTCAGCA, for which the switch fluorescence ratio is 1.05.

Consider TTGATAGTGC, for which the switch fluorescence ratio worked out at 1.

As for CAACAGGCGG, the switch fluorescence ratio came out at 1.02.

As for TGAGTTAATA, the switch fluorescence ratio worked out at 1.01.

As for TTTAAGGTGT, the switch fluorescence ratio came out at 0.962.

As for GTGTAAGCG, the switch fluorescence ratio was 1.01.

CCGCTGAGGC: the switch fluorescence ratio was 1.84.

As for TTAAGGCAAT, the switch fluorescence ratio came to 2.66.

In the case of GGTCAGGGCG, the switch fluorescence ratio came out at 1.04.

In the case of TCTGATGGGT, the switch fluorescence ratio worked out at 0.985.

With TACTTTGCCC, the switch fluorescence ratio stood at 1.11.

Take AACATCAACT: the switch fluorescence ratio stood at 1.06.

With GATGGCTGTT, the switch fluorescence ratio came to 1.02.

With TTCGCAAGCT, the switch fluorescence ratio came out at 1.43.

For the sequence GTATATAAAC, the switch fluorescence ratio was found to be 1.02.

Consider TGTGATGGCA, for which the switch fluorescence ratio was determined as 0.933.

Take GTATGCTAGT: the switch fluorescence ratio worked out at 0.987.

As for GTGTTAGTCT, the switch fluorescence ratio came to 1.06.

For the sequence TTGACATCGG, the switch fluorescence ratio stood at 1.

With ATGGATACAA, the switch fluorescence ratio is 1.01.

In the case of AATTTTTAA, the switch fluorescence ratio is 0.981.

As for GCCGCGATTG, the switch fluorescence ratio turned out to be 1.13.

Turning to CCCCATTAAC, the switch fluorescence ratio came to 1.35.

On to GTATTAAAAA, for which the switch fluorescence ratio was found to be 0.972.

GCCCCACGTG: the switch fluorescence ratio was 3.05.

Turning to GGTATTTAAT, the switch fluorescence ratio is 1.03.

On to AACTTGTGCC, for which the switch fluorescence ratio stood at 0.99.

AAAAGAGGCT: the switch fluorescence ratio was 1.04.

Regarding GACTGAAGCG, the switch fluorescence ratio worked out at 1.02.

For the sequence TCCGGTGGGA, the switch fluorescence ratio was found to be 1.04.

For the sequence AAACGCGATT, the switch fluorescence ratio was 1.11.

As to AACTGGAG, the switch fluorescence ratio worked out at 1.04.

On to TAAGGGAACG, for which the switch fluorescence ratio came to 0.961.

As to CAGGACACAT, the switch fluorescence ratio turned out to be 1.02.

Take CGCGAACAGG: the switch fluorescence ratio worked out at 1.08.

On to TACTTGTGGC, for which the switch fluorescence ratio is 0.996.

Turning to AGCCGATTCT, the switch fluorescence ratio worked out at 1.02.

For the sequence TTGTGTGTTC, the switch fluorescence ratio is 0.99.

Turning to CCGTCAACCA, the switch fluorescence ratio turned out to be 1.26.

Regarding TTCATCGCGC, the switch fluorescence ratio is 0.978.

For the sequence TCCAAAATG, the switch fluorescence ratio turned out to be 1.01.

As to AGCTTGGTTT, the switch fluorescence ratio amounted to 0.945.

As to GCACACAAAT, the switch fluorescence ratio worked out at 1.

ATGATAAGCG: the switch fluorescence ratio turned out to be 0.989.

With ATTTTCCGCC, the switch fluorescence ratio was 1.28.

Regarding TTTCGTTACA, the switch fluorescence ratio was 1.05.

Turning to TAATCAATAC, the switch fluorescence ratio amounted to 3.27.

With TCTTGTGATG, the switch fluorescence ratio was determined as 0.985.

Take CAACGCGAGT: the switch fluorescence ratio was found to be 1.27.

For the sequence TCAAGAAGGG, the switch fluorescence ratio came out at 0.992.

With CAAGTAATGA, the switch fluorescence ratio amounted to 1.02.

As for CGCTTCAACC, the switch fluorescence ratio amounted to 1.06.

GTTAGAGAAA: the switch fluorescence ratio is 0.986.

Turning to GTAGTCGCCT, the switch fluorescence ratio turned out to be 0.981.

On to CACTTGATCT, for which the switch fluorescence ratio was 1.02.

As to AAACCATTTA, the switch fluorescence ratio came to 1.06.

On to TCACTACCAC, for which the switch fluorescence ratio turned out to be 1.3.

On to ACAGTCCGGA, for which the switch fluorescence ratio is 0.998.

TATTCGAATC: the switch fluorescence ratio amounted to 0.966.

In the case of TCCCACGATT, the switch fluorescence ratio was determined as 1.03.

Regarding CTGTGAATCC, the switch fluorescence ratio came out at 1.05.

As for AAGACTGTCT, the switch fluorescence ratio came out at 0.978.

Consider AGGCTTTTCC, for which the switch fluorescence ratio came to 1.02.

In the case of GACACACCTT, the switch fluorescence ratio was 1.32.

On to ATCGGCAGCG, for which the switch fluorescence ratio is 1.04.

For AGGGCCATCA, the switch fluorescence ratio was determined as 0.975.

For the sequence GTTGGTGTCA, the switch fluorescence ratio is 1.02.

For GCGAATCTGC, the switch fluorescence ratio was determined as 1.03.

Regarding GAAAAGAATA, the switch fluorescence ratio amounted to 1.03.

As to ATTCGCGAG, the switch fluorescence ratio was 1.01.

With GGGGCTGATG, the switch fluorescence ratio turned out to be 1.02.

Consider CGTAGACTGT, for which the switch fluorescence ratio worked out at 1.06.

In the case of GGCACTAGTA, the switch fluorescence ratio was 0.97.

For the sequence TACTTAGGTA, the switch fluorescence ratio was determined as 1.03.

TCAATTATGT: the switch fluorescence ratio amounted to 0.998.

With TATTTGAAG, the switch fluorescence ratio worked out at 1.

Take GTACGACTGG: the switch fluorescence ratio was 0.993.

As to TTCGGGATTC, the switch fluorescence ratio worked out at 1.8.

For the sequence GGCCTTTGCA, the switch fluorescence ratio amounted to 1.03.

Regarding CCACTTTCCA, the switch fluorescence ratio came to 0.999.

As for TAGCGTCCCC, the switch fluorescence ratio was 1.34.

For TTACGCCTC, the switch fluorescence ratio is 1.07.

As for TCTTAAAAAA, the switch fluorescence ratio worked out at 1.01.

As for GAGCTTGTAG, the switch fluorescence ratio came to 1.02.

GGGAATCCTG: the switch fluorescence ratio was 1.02.

Turning to GCGCGTGAAA, the switch fluorescence ratio stood at 0.997.

Regarding TCGGTCGCCA, the switch fluorescence ratio was 1.07.

AAGATATTAG: the switch fluorescence ratio was determined as 0.983.

These data come from the supplement of paper PMC10126150.
